The record followed here is the RNAGym collection of RNA variant scans (doi:10.1093/nar/gkz1192).

The source gives no read counts; variants with many changes may rest on few reads.

B1: CPEB3 Ribozyme (parent)
chain: UAACAGGGGGCCACAGCAGAAGCGUUCACGUCGCAGCCCCUGUCAGAUUCUGGUGAAUCUGCGAAUUCUGCUGUAUAUCUC

The data set covers variants of B1. In words: self-cleavage, relative activity (ratio to wild type); higher = more cleavage; in vitro, sequencing. In short, it runs like this: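 Relative activity compares each variant's cleaved/total read fraction with that of the unmutated ribozyme. To get these fractions, barcoded CPEB3 ribozyme libraries from rounds of error-prone PCR were transcribed with T7 RNA polymerase for 5 hours at 37°C and then given 15 min of DNase I treatment before EDTA was added. The RNAs were reverse transcribed with template switching and sequenced on Illumina, and DNA sequencing linked barcodes to variants. A minimum of 5 reads applied, and three batches were averaged.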
Turning to G8U A45G U51A A64G, the self-cleavage turned out to be 0.2.
For G8A C23A U49A U60C, the self-cleavage was determined as 0.04.
On to G8U G9A U26C U66C G70U, for which the self-cleavage was 0.06.
Turning to G8C A20G U54C U66C, the self-cleavage stood at 0.05.
In the case of G8A U41C U66C, the self-cleavage is 0.18.
For G8A G55U A57G U72G, the self-cleavage was determined as 0.07.
To G8U A15G U41C U43C C62G U67A U80C belongs 0.07.
With G8C A56G G61C U80C, the self-cleavage was found to be 0.06.
Consider G8C C39U G52C U74C U76C, for which the self-cleavage worked out at 0.09.
The same measure for G8A C27A U58C: 0.07.
The same measure for G8A U31A G36A: 0.06; for G8A C17U U25C A35G: 0.06; for G8U A20U A35U U54C: 0.06.
On to G8C G24C U25C A45G U67C, for which the self-cleavage turned out to be 0.06.
To G8C U25A A64G belongs 0.14.
For the variant G8U A20G U25C A56G U78C, the self-cleavage was 0.17.
To G8U C32U C62G U80C belongs 0.09.
The same measure for G8A U41C U54A U76A: 0.4; for G8C U51C U58C C81A: 0.18.
Regarding G8U A13G C44A, the self-cleavage came out at 0.19.
G8A C50A U51C: the self-cleavage amounted to 0.08.
In the case of G8A C23U A45G A47G U60C G70C U80C, the self-cleavage came out at 0.04.
To G8C A20U U26A belongs 0.22.
Consider G8A C23U A64G, for which the self-cleavage is 0.23.
G8C A56U U67C: the self-cleavage worked out at 0.07.
The same measure for G8A A28G G33U U60A: 0.17; for G8U A20G A21G U74A U80C: 0.31.
To G8U C50U U54C C81A belongs 0.22; to G8A A47G U69A, 0.2; to G8A C11U A13G U41C U49A A64U, 0.1.
The same measure for G8A U41C C59A U78C: 0.12.
As to G8A U41A C62A G63A U74C, the self-cleavage stood at 0.19.
The same measure for G8U A45G U67C: 0.06.
Turning to G8U A28U G33A, the self-cleavage was found to be 0.07.
In the case of G8A C14G U26C A77U C81U, the self-cleavage was 0.05.
With G8A G22A U51C U58C U60C U72C U80C, the self-cleavage turned out to be 0.12.
As for G8U A20G A28G C32U A35U, the self-cleavage is 0.06.
G8C C40U U58C U67C: the self-cleavage came to 0.13.
To G8A U25C C62U belongs 0.36; to G8U A18U U26A U41C A47G A64G U66G, 0.14.
The same measure for G8A A56G U72C: 0.29.
Regarding G8U C14A A35U U78G U80A, the self-cleavage stood at 0.03.
For G8U U25C A45G U67C, the self-cleavage stood at 0.06.
Consider G8U U26A G63U, for which the self-cleavage came to 0.04.
For G8C A20G C50U U66C, the self-cleavage came to 0.5.
To G8C A28C A57G belongs 0.22; to G8C C34G U48A, 0.2; to G8A G16A U31C C39A U54C, 0.05.
G8U A13U A21U U67C: the self-cleavage turned out to be 0.06.
Consider G8U A21U U69A U72C, for which the self-cleavage amounted to 0.07.
For G8A C29A C34A C40U C44A A56U U58G, the self-cleavage came out at 0.02.
As to G8U A15G A18G U25C U31A A75G, the self-cleavage is 0.24.
With G8A U25C U31C U67A, the self-cleavage is 0.25.
For the variant G8A U25C U43C U48A U49C, the self-cleavage amounted to 0.29.
For G8A U26A U43G U51C A57G C62U U78C, the self-cleavage amounted to 0.03.
Turning to G8C A21G G33A U51C G52A U80C, the self-cleavage is 0.05.
Regarding G8U A47U U54C C71U, the self-cleavage was 0.06.
G8A U26C U31A G33U U43C: the self-cleavage was 0.05.
As to G8U A20C G63C, the self-cleavage was determined as 0.
On to G8U C32U U78A, for which the self-cleavage stood at 0.11.
The same measure for G8A U49C U80C: 0.09.
Regarding G8A C12A U41C, the self-cleavage came out at 0.32.
In the case of G8A U31C A35U U67G, the self-cleavage worked out at 0.1.
Regarding G8A G63A U72C, the self-cleavage was found to be 0.09.
On to G8C A15U U31C, for which the self-cleavage was found to be 0.08.
For G8A G9C G22U G46C G70A, the self-cleavage was 0.05.
For G8A C38A U58A, the self-cleavage was 0.11.
For G8U A13U U43G A45U U78A, the self-cleavage was 0.05.
On to G8A G24A U25C A45U, for which the self-cleavage worked out at 0.06.
Regarding G8U C62G U76C, the self-cleavage was 0.09.
Consider G8U A20G U26C U69C, for which the self-cleavage came out at 0.12.
Consider G8A A57G A64G U69C U78C, for which the self-cleavage was 0.04.
To G8U A21U U25C A35G U41A A64G belongs 0.04; to G8U A45U G53U U74A, 0.23.
For the variant G8A U31C U48C, the self-cleavage turned out to be 0.22.
The same measure for G8C C17U U51A G52U U72C: 0.08.
To G8A C39A A65U belongs 0.05.
On to G8A U25C A35G G52A, for which the self-cleavage was determined as 0.07.
The same measure for G8U A18G U41A A56U U67A: 0.12; for G8C U25A U67C U72C: 0.06; for G8A U41C U54A U69C: 0.1.
For the variant G8A G30C U31C U41C G55A U80C, the self-cleavage turned out to be 0.06.
On to G8A U54G G73A, for which the self-cleavage was 0.5.
Regarding G8U A13G U51A U76A, the self-cleavage was found to be 0.08.
Regarding G8U C14A A15U U25C A45G, the self-cleavage worked out at 0.05.
Turning to G8U A20G A57G, the self-cleavage is 0.09.
Take G8A A45G A56G U80A: the self-cleavage was found to be 0.33.
For the variant G8U U25C U26C A45U U60A A75U, the self-cleavage was found to be 0.05.
In the case of G8U G30A A56U U60C, the self-cleavage turned out to be 0.05.
For G8U A13G U43A A57G C68U, the self-cleavage was found to be 0.18.
On to G8A U43C U74C U80C, for which the self-cleavage was 0.46.
G8A A57G U60A: the self-cleavage turned out to be 0.04.
Consider G8A A45G U54C A56G U78A, for which the self-cleavage was 0.04.
As for G8A G10U U69C, the self-cleavage amounted to 0.15.
For G8A U80A C81U, the self-cleavage turned out to be 0.29.
To G8A G36A C40G U51C U76A belongs 0.05; to G8U U25A A28U U41C A64G, 0.05; to G8U A18U A20G A21G U80C, 0.4.
G8U A20G U48G U51C U54C G70A: the self-cleavage was 0.05.
Take G8U G10A C11U A65G U78G: the self-cleavage stood at 0.06.
The same measure for G8A U43A U78C: 0.31; for G8A C23G U49C U72A U74C: 0.13.
With G8U U25C C32U U41C A45G U60A U78C, the self-cleavage worked out at 0.04.
Turning to G8A U26C U67C U76C, the self-cleavage amounted to 0.05.
Take G8A C34A U54C U60C: the self-cleavage was determined as 0.15.
Take G8A U54C A56G A57G U72C: the self-cleavage came to 0.15.
As for G8U U31C U41C U58C, the self-cleavage stood at 0.12.
The same measure for G8C U31A U51A: 0.3; for G8A G19A G24U U58G A65G C71U: 0.11; for G8U U26A U41C U49C U51C: 0.17.
In the case of G8A A28G U74C A75U U78A, the self-cleavage came to 0.05.
As for G8A G24A U60C, the self-cleavage stood at 0.09.
The same measure for G8U A28C A35G A77U: 0.05; for G8A C17A U25C U41A A57G U72A: 0.11; for G8A U25A U31C C62G A75G: 0.1.
To G8A A56G C81A belongs 0.3.
For G8U U26C U51C A64U, the self-cleavage amounted to 0.11.
For G8A A21U U26C U80A, the self-cleavage turned out to be 0.04.
On to G8C A15G A35G U72A, for which the self-cleavage came out at 0.09.
With G8A G24A U25C U51A U54C U74A, the self-cleavage amounted to 0.04.
For the variant G8A A35G U41C U58C U60C U74A U80A, the self-cleavage was 0.07.
With G8A U31A U49A A56G U60A C68U, the self-cleavage was 0.05.
With G8A A45G U72C, the self-cleavage was 0.45.
For G8A A35G A57U U78C, the self-cleavage came to 0.1.
Turning to G8U G9U C14U U26C C38U A45G, the self-cleavage worked out at 0.06.
For the variant G8A U31C C62U A65G U74C, the self-cleavage amounted to 0.04.
Consider G8A U25C U31G U49A A56G A65U A75G, for which the self-cleavage was found to be 0.
For the variant G8A C23A U58A U60C, the self-cleavage stood at 0.06.
Turning to G8C U26C U54A A56G G73C, the self-cleavage amounted to 0.11.
Consider G8A A28G C29U U49C U51A U54C U67A, for which the self-cleavage was found to be 0.04.
In the case of G8U G9C U26C A28U C29U, the self-cleavage turned out to be 0.11.
Consider G8A C11U A13C, for which the self-cleavage was determined as 0.09.
The same measure for G8A G19A A20G U25A U78C: 0.09; for G8A A28U A35U U41C A56G U69C: 0.17.
On to G8A U25C U26C U80A, for which the self-cleavage stood at 0.08.
On to G8U A28U G30A U49C C68U U80C, for which the self-cleavage stood at 0.03.
Turning to G8U U25C A47G U60A A65G, the self-cleavage stood at 0.09.
Turning to G8A G9A A56G, the self-cleavage is 0.34.
Turning to G8A C23G A35U U54C U72G, the self-cleavage is 0.04.
Consider G8A U26C U58C U67C U69A U80C, for which the self-cleavage was 0.04.
G8A A28G C38G: the self-cleavage stood at 0.11.
Consider G8C U26C U41C U54C, for which the self-cleavage worked out at 0.05.
As for G8A C27U U31C A35G U72A, the self-cleavage came out at 0.05.
Turning to G8C A13U U26C U69A, the self-cleavage amounted to 0.1.
The same measure for G8U C39U U48A C62G U67A: 0.09; for G8A G19A A56U U58C: 0.1.
Turning to G8A G70A G73U, the self-cleavage is 0.21.
G8A G10A U60A A65G: the self-cleavage was determined as 0.06.
Take G8U G33A A64G: the self-cleavage worked out at 0.1.
In the case of G8C A15G U76C, the self-cleavage was 0.07.
The same measure for G8U G10A U72C: 0.33; for G8U A15C G19U: 0.08.
To G8U G33A U51A A77G belongs 0.04.
To G8A A28U C29U belongs 0.08; to G8A U54A A57G U69A, 0.37; to G8A G9A A47G U58C U69A, 0.19.
On to G8A C12U A75U U78C, for which the self-cleavage was 0.08.
Consider G8C U25C U54A, for which the self-cleavage is 0.34.
As for G8A C14G U25C U78C, the self-cleavage amounted to 0.06.
As for G8A U26C U66A, the self-cleavage stood at 0.06.
For G8A A56U G61A A64U U67C A77U, the self-cleavage turned out to be 0.04.
To G8A G10A A47G U51G A56G U72A belongs 0.03; to G8U C11A U26C U69C, 0.06.
The same measure for G8U A21U A56G U74C: 0.06; for G8U C11A A18U A20U A35G A65G: 0.04.
Consider G8U A45U U54A U72A U78C, for which the self-cleavage stood at 0.04.
On to G8U A20U C32U G33C U54C U74C, for which the self-cleavage is 0.1.
